Data on one molecule can be found in patent publication US12060433B2, “CD73 inhibitor and A2A/A2B adenosine receptor inhibitor combination therapy” (Incyte Corporation, priority 2020, dated 2024).

A word on the Kd: it is the equilibrium constant for the complex coming apart. A low value points to tighter binding.

In assay [1] the target is cynomolgus CD73 (SEQ ID NO: 72). Nature of the assay: SPR (Biacore 8K) binding affinity and kinetics to cynomolgus CD73. As for the experimental part: (§1) The SPR running buffer (10 mM HEPES, 150 mM NaCl, 3 mM EDTA and 0.05% v/v Surfactant P20, pH 7.4) was prepared from 10×HBS-EP Buffer (GE Healthcare). Anti-human Fc antibodies (GE Healthcare) were immobilized via amine coupling on all sixteen flow cells of an S series sensor chip CM5 (GE Healthcare). The immobilization levels were ˜9000 RU for all flow cells. The desired capturing level of anti-CD73 antibody was achieved by flowing appropriate concentration of anti-CD73 antibody through the active flow cell of each channel. The non-cleavable ADP analogue APCP (adenosine-5′-(α,β-methylene) diphosphate) with the presence of Zn^2+ can be used to shift the CD73 conformational equilibrium from open towards closed. Therefore, recombinant CD73 was incubated with SPR running buffer in the presence of 100 μM APCP and 10 μM ZnCl2 (closed SPR running buffer) to study the binding of anti-CD73 antibody to the CD73 in the closed conformation. To achieve this, the ABA injection feature in Biacore 8K was used. For open conformation, the ABA injection sequence started with 60 seconds injection of running buffer. Then, CD73 3-fold serial dilution concentration series prepared from CD73 stock (BPS Bioscience) and running buffer were injected for 180 seconds immediately followed by running buffer for 240 seconds. […]

Assay [2] concerns the target T1, cellular CD73 on A375 cells (Homo sapiens, UniProt P21589).
T1 construct: endogenous in cells; host or cells: A375
T1 sequence (P21589 27-549): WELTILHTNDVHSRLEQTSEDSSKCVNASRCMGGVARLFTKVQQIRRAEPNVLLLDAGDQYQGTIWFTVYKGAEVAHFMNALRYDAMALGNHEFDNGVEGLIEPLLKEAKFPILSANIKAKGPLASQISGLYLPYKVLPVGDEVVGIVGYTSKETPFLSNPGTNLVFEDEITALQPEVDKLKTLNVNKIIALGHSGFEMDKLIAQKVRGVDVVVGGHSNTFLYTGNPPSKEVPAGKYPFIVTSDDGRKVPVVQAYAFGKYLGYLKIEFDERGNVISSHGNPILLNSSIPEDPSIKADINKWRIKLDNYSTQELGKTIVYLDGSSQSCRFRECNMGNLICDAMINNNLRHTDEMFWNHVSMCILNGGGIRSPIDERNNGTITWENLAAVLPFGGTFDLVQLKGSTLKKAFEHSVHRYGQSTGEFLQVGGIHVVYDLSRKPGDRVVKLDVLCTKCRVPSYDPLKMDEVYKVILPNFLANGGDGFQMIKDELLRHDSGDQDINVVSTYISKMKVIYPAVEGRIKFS
Nature of the assay: Cellular CD73 inhibition (AMP-Glo), A375 cells. In kind it is cell-based. Conditions: 100 μM AMP, 3 hours. As for the experimental part: To measure ability of anti-CD73 antibody to inhibit CD73 activity on cells, A375 and MDA-MB-231 cells were washed with serum free RPMI media (ThermoFisher) and plated in 96-well plates at a concentration of 8×10^4 cells/well for A375 or 1×10^4 cells/well for MDA-MB-231. The cells were incubated with the indicated concentration of antibodies or APCP at 37° C. 5% C02 for 30 minutes (FIG. 3A, FIG. 3B, and FIG. 3C). Next, adenosine monophosphate (AMP) was added to a final concentration of 100 μM and cells were incubated an additional 3 hours at 37° C. 5% CO2. Plates were centrifuged for 1-2 minutes at 300 g and 25 μL of supernatant was transferred into a new 96-well plates. AMP-Glo Assay was used according to the manufacturer's instructions (Promega). Relative luminescence unit (RLU) is directly correlated with the AMP concentration in this assay. Results are depicted in FIG. 3A, FIG. 3B, and FIG. 3C. The ability of 3-[…] to inhibit CD73 activity on cells was evaluated as described in Example 3, above. Results are depicted in FIG. 8A and FIG. 8B.

Assay [3] addresses T2, cellular CD73 on MDA-MB-231 cells (Homo sapiens, UniProt P21589).
T2 construct: endogenous in cells; host or cells: MDA-MB-231
T2 sequence (P21589 27-549): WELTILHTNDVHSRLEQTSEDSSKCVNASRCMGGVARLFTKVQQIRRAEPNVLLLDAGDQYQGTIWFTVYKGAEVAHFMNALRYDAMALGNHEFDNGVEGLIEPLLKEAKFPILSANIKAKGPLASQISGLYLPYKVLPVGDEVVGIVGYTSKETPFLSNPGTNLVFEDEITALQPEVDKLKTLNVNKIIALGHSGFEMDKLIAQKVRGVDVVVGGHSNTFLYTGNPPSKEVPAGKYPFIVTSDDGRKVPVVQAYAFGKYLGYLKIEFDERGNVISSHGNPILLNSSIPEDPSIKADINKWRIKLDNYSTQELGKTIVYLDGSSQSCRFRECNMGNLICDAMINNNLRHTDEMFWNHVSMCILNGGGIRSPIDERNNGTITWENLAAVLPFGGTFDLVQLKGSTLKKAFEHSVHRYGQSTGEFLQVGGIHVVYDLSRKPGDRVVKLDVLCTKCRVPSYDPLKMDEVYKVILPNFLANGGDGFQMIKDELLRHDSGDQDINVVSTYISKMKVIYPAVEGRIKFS
Nature of the assay: Cellular CD73 inhibition (AMP-Glo), MDA-MB-231 cells. In kind it is cell-based. The following applies: 100 μM AMP, 3 hours. As for the experimental part:
To measure ability of anti-CD73 antibody to inhibit CD73 activity on cells, A375 and MDA-MB-231 cells were washed with serum free RPMI media (ThermoFisher) and plated in 96-well plates at a concentration of 8×10^4 cells/well for A375 or 1×10^4 cells/well for MDA-MB-231. The cells were incubated with the indicated concentration of antibodies or APCP at 37° C. 5% C02 for 30 minutes (FIG. 3A, FIG. 3B, and FIG. 3C). Next, adenosine monophosphate (AMP) was added to a final concentration of 100 μM and cells were incubated an additional 3 hours at 37° C. 5% CO2. Plates were centrifuged for 1-2 minutes at 300 g and 25 μL of supernatant was transferred into a new 96-well plates. AMP-Glo Assay was used according to the manufacturer's instructions (Promega). Relative luminescence unit (RLU) is directly correlated with the AMP concentration in this assay. Results are depicted in FIG. 3A, FIG. 3B, and FIG. 3C. […] Results are depicted in FIG. 8A and FIG. 8B. […] Cells were incubated with the indicated concentration of antibodies or APCP at 37° C. 5% CO2 for 30 minutes. Next, AMP was added to a final concentration of 100 μM and cells were incubated an additional 3 hours at 37° C. 5% CO2. Plates were centrifuged for 1-2 minutes at 300 g and 25 μL of supernatant was transferred into a new 96-well plates. AMP-Glo Assay was used according to the manufacturer's instructions. […]

Assay [4] addresses T3, mouse CD73 (SEQ ID NO: 71) (Mus musculus, UniProt Q61503).
T3 construct: purchased BPS Bioscience
T3 sequence (Q61503 29-551): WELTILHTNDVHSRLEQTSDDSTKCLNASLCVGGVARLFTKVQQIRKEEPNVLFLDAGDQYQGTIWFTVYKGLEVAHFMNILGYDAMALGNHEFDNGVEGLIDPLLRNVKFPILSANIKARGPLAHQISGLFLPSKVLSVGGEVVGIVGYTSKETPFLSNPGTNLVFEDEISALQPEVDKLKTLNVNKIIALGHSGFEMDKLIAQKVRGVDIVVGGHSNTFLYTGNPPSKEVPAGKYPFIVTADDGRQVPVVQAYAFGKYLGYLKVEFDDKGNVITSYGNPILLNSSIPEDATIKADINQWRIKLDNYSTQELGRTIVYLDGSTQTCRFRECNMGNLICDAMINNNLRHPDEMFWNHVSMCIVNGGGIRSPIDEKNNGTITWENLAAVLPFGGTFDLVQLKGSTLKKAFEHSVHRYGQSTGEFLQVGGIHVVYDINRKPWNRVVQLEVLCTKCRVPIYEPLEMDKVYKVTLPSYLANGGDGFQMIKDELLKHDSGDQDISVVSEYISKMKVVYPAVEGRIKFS
Nature of the assay: SPR (Biacore 8K) binding affinity and kinetics to mouse CD73. How it is done:
as §1

B1: HzCL25: humanized version of CL25, IgG1/kappa N297A, VH SEQ ID NO:22, VL SEQ ID NO:23; heavy chain SEQ ID NO:24, light chain SEQ ID NO:25 (antibody)
heavy: EVQLVQSGAEVKKPGESLKISCKGSGYTFTSYGLSWVRQMPGKGLEWMGEIYPGSGNTYYNEKFKGQVTISADKSISTAYLQWSSLKASDTAMYYCARYDYLGSSYGFDYWGAGTTVTVSSASTKGPSVFPLAPSSKSTSGGTAALGCLVKDYFPEPVTVSWNSGALTSGVHTFPAVLQSSGLYSLSSVVTVPSSSLGTQTYICNVNHKPSNTKVDKRV[human IgG1 Fc with changes cut from this listing]
light: DIVMTQSPDSLAVSLGERATINCKASQDVSTAVAWYQQKPGQPPKLLIYSASYRYSGVPDRFSGSGSGTDFTLTISSLQAEDVAVYYCQQHYNTPYTFGGGTKLEIKRTVAAPSVFIFPPSDEQLKSGTASVVCLLNNFYPREAKVQWKVDNALQSGNSQESVTEQDSKDSTYSLSSTLTLSKADYEKHKVYACEVTHQGLSSPVTKSFNRGEC
Molecule B1 displayed a dissociation constant (Kd) in assay [1] (cynomolgus CD73, as stated in the description) not above 500 pM. This molecule gave a kd in assay [1] (cynomolgus CD73, open conformation) of 0.000468 s⁻¹. Further, the “cellular CD73 inhibition” value in assay [2] and in assay [3] was “good potency” in each case. Besides, the “binding to mouse CD73” value in assay [4] (as stated in the description) is recorded as “undetectable binding”. In addition, the KD entry in assay [4] (murine CD73, open conformation (merged ka/kd/KD cell where no binding)) was “No binding”.
